According to PubChem BioAssay AID624202 (National Center for Advancing Translational Sciences (NCATS), 2012):
Screen size: about 380,000 compounds; about 4,000 (1.1%) were called active. Inconclusive results, whose numbers are uncertain, are shown with a selection of clear calls. The call rests on the fitted dose curve; in most records, active means well fitted activation curve with a large enough effect; inconclusive means small, poorly fitted or top-dose-only effect; inactive means no such curve, though single readings can be large or run the other way. Potencies of inconclusive entries are doubtful fits and often do not repeat.

Assay: qHTS Assay to Identify Small Molecule Activators of BRCA1 Expression; further: nearly all actives have a fitted effect of over 80% in size
Conditions: MCF7-BRCA1-FFLuc reporter, luminescence, 48 h; activation: at 46.1 µM (top of the series), scaled: vehicle 0%, 10 µM genistein 100% unless noted
In short: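 Activators of BRCA1 expression were detected as increased firefly luciferase luminescence in engineered MCF7 cells after 48 h compound incubation. Signals were scaled to genistein 10 microM as full activation.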
Potency means the concentration at half of the fitted maximal effect; tags describe the fitted curve by direction and shape.

Row | SMILES | Potency | activation
1 | O=C(c1ccc(-c2ccccc2Cl)o1)N1CCCCCCC1 | inconclusive: 2.51 µM [activator, partial curve, poor fit] | 
2 | Cc1ccc(NC(=O)c2cc(-c3cccc(O)c3)on2)cc1C | inconclusive: 22.4 µM [activator, single point] | 
3 | C=CCn1nnnc1SCC(=O)Nc1ccc(OC)cc1 |  | inactive: 12.3%
4 | COc1ccc2c(c1)CC/C2=N\OC(=O)c1cccc(C)c1 | inconclusive: 12.6 µM [activator, partial curve, poor fit] | 
5 | CCN(CC)c1ccc(NC(=O)c2ccc(Br)o2)cc1 | active: 2.82 µM | 
6 | O=C(CS(=O)(=O)c1c[nH]c2ccccc12)Nc1ccc2c(c1)OCCO2 | inconclusive: 10 µM [activator, partial curve, poor fit] | 
7 | CCN(CC)C(=O)CCCOc1ccc(Cl)cc1Cl | inconclusive: 11.2 µM [activator, partial curve, poor fit] | 
8 | COc1ccc(C(=O)Nc2ccc(C)cn2)c(OC)c1 |  | inactive: -93%
9 | O=C(CNC(=O)c1ccc([N+](=O)[O-])cc1)c1ccccc1 | active: 6.31 µM | 
10 | Cc1cccc(Cc2cnc(NC(=O)C3=NCCN3)s2)c1 |  | inactive: -5.59%
11 | COc1ccccc1/C=N\Nc1ccccc1[N+](=O)[O-] | active: 10 µM | 
12 | [O-][n+]1nc2ccccc2c2ccccc21 | inconclusive: 35.5 µM [activator, single point] | 
13 | Cc1ccc2[nH]c(=O)c(CN(CCO)Cc3nnnn3Cc3ccccc3)cc2c1 |  | inactive: 3.35%
14 | CCc1nc2n[nH]c(N)c2c2c1CCCC2 |  | inactive: -0.21%
15 | Cc1nc(N/N=C\c2ccc3c(c2)OCO3)sc1C | inconclusive: 2.51 µM [activator, full curve, poor fit] | 
16 | CCCc1cc(=O)n2[nH]c(-c3ccc(C)cc3)cc2n1 | active: 1.41 µM | 
17 | O=C(NCCNc1ccccc1[N+](=O)[O-])c1cc(F)c(F)cc1Cl | inconclusive: 12.6 µM [activator, partial curve, poor fit] | 
18 | CCOc1ccc(C(CC(=O)O)NC(=O)C(CC)c2ccccc2)cc1 (configuration not stated) |  | inactive: 13.1%
19 | Cc1nnc(NC(=O)CC(C)c2ccccc2)s1 (configuration not stated) |  | inactive: 0%
20 | COc1ccc(C(=O)N2CCc3ccccc32)cc1 | active: 11.2 µM | 
21 | CCC(C(=O)Nc1ccc2c(c1)OCCO2)n1nnc2ccccc2c1=O (configuration not stated) | active: 10 µM | 
22 | Cc1ccn2c(c1)nc(=O)c1cc(S(=O)(=O)N3CCCCC3)c(Cl)cc12 |  | inactive: 15.1%
23 | O=C(Nc1ccccc1)Nc1csc2ccccc12 |  | inactive: 55.8%
24 | CC(C)OCCCNC(=O)c1ccc2c(c1)ncn2C1CCCC1 | active: 11.2 µM | 
25 | COC(=O)c1ccc(NC(=O)C(=O)c2c[nH]c3ccccc23)cc1 | inconclusive: 15.8 µM [activator, partial curve, poor fit] | 
26 | COc1ccc(/C=C/C(=O)NC(=S)Nc2ccccn2)cc1 | active: 8.91 µM | 

Row | SMILES | Potency | activation
27 | COc1cccc(-c2nnn(CC(C)=O)n2)c1 | inconclusive: 1.58 µM [activator, partial curve, poor fit] | 
28 | CCOC(=O)Nc1nnc(-c2cccc(OC)c2)s1 |  | inactive: 50.9%
29 | CCCCOC(=O)Nc1ccc(N2CCCCC2)cc1 | inconclusive: 0.631 µM [activator, full curve, poor fit] | 
30 | CCCCn1c(O)c(N=Nc2ccccc2O)c2ccccc21 |  | inactive: -29.4%
31 | COc1cccc(OCc2cc(C(=O)NCc3ccccn3)no2)c1 | active: 12.6 µM | 
32 | Cc1ccc(C)c(OCCC(=O)OCC(=O)N2CCN(S(=O)(=O)c3ccc(Cl)cc3)CC2)c1 |  | inactive: -33.6%
33 | N=c1oc2c3c4c(cc2cc1C(=O)Nc1ccccc1)CCCN4CCC3 |  | inactive: -3.18%
34 | Clc1ccccc1OCCCOc1cccc2cccnc12 | inconclusive: 7.08 µM [activator, partial curve, poor fit] | 
35 | Cc1cc(Cl)c2oc(C(=O)N(C)C(C)c3ccccn3)c(C)c2c1 (configuration not stated) | inconclusive: 35.5 µM [activator, single point] | 
36 | COc1cccc(CNC(=O)CCNS(=O)(=O)c2ccc3c(c2)CC(C)N3C(C)=O)c1 (configuration not stated) |  | inactive: 9.16%
37 | CC1CCCN(c2ccc(C(=O)NCc3cccs3)cn2)C1 (configuration not stated) | active: 10 µM | 
38 | N/C(=N\N=C\c1ccc([N+](=O)[O-])cc1)c1nonc1N | inconclusive: 1.12 µM [activator, full curve, poor fit] | 
39 | O=C(C1CCN(S(=O)(=O)N2CCOCC2)CC1)N1CCN(c2ccc(F)cc2)CC1 |  | inactive: -3.51%
40 | O=C(Cc1ccc2c(c1)OCCO2)N1CCN(S(=O)(=O)c2cccs2)CC1 |  | inactive: 10.8%
41 | CC(C)CCNC(=O)NC(=O)COc1ccccc1C#N | inconclusive: 15.8 µM [activator, single point] | 
42 | CC(=O)NCCCOc1ccc([N+](=O)[O-])cc1Cl | inconclusive: 17.8 µM [activator, partial curve, poor fit] | 
43 | CCc1ccc(/C=C\C(=O)N2CCc3ccccc3C2)cc1 | inconclusive: 28.2 µM [activator, single point] | 
44 | Cc1ccccc1C(=O)Nc1ccc(Br)c(C)n1 | inconclusive: 31.6 µM [activator, single point] | 
45 | CCC(=O)NC(c1ccc(C)cc1)c1ccc2cccnc2c1O (configuration not stated) |  | inactive: -61.4%
46 | Nc1cc(-c2ccc(Cl)cc2)nn1-c1ccccc1 | inconclusive: 5.01 µM [activator, partial curve, poor fit] | 
47 | Cc1cc(/C(N)=N/OC(=O)c2ccccc2Cl)no1 | inconclusive: 0.501 µM [activator, full curve, poor fit] | 
48 | S=C(NCCc1ccccc1)NCc1cccs1 | inconclusive: 12.6 µM [activator, partial curve, poor fit] | 
49 | CCCCCn1cnc2c(sc3nc4c(cc32)CSC(C)(C)C4)c1=O | active: 2.24 µM | 
50 | CC(=O)c1ccc(NCC2COc3ccccc3O2)c([N+](=O)[O-])c1 (configuration not stated) |  | inconclusive: 109% [activator]
51 | Cc1cccn2cc(CSc3ccccc3N)nc12 | inconclusive: 2 µM [activator, partial curve, poor fit] | 
52 | O=C(NCCCN1CCOCC1)c1sc2ccccc2c1Cl | active: 11.2 µM | 
